# Values joined by “and” are separate entries in the source; they are usually repeats but may differ in a detail not shown here. Equal entries are not always repeated. The whole screen tested about 220,000 compounds, of which about 5,700 (2.6%) were called active. The inconclusive results got no clear call from the source; some entries with a clear call stand among them for comparison. Calls come from the whole dose curve; as a rule, active = well fitted inhibition curve with a large enough effect; inconclusive = small, poorly fitted or top-dose-only effect; inactive = no such curve, though single readings can be large or run the other way. A potency beside an inconclusive call is a rough fit, not a confirmed value.
# Target: Lysine-specific demethylase 5B (Homo sapiens) (UniProt Q9UGL1)
# Sequence of UniProt Q9UGL1 (Q9UGL1 whole entry, looked up): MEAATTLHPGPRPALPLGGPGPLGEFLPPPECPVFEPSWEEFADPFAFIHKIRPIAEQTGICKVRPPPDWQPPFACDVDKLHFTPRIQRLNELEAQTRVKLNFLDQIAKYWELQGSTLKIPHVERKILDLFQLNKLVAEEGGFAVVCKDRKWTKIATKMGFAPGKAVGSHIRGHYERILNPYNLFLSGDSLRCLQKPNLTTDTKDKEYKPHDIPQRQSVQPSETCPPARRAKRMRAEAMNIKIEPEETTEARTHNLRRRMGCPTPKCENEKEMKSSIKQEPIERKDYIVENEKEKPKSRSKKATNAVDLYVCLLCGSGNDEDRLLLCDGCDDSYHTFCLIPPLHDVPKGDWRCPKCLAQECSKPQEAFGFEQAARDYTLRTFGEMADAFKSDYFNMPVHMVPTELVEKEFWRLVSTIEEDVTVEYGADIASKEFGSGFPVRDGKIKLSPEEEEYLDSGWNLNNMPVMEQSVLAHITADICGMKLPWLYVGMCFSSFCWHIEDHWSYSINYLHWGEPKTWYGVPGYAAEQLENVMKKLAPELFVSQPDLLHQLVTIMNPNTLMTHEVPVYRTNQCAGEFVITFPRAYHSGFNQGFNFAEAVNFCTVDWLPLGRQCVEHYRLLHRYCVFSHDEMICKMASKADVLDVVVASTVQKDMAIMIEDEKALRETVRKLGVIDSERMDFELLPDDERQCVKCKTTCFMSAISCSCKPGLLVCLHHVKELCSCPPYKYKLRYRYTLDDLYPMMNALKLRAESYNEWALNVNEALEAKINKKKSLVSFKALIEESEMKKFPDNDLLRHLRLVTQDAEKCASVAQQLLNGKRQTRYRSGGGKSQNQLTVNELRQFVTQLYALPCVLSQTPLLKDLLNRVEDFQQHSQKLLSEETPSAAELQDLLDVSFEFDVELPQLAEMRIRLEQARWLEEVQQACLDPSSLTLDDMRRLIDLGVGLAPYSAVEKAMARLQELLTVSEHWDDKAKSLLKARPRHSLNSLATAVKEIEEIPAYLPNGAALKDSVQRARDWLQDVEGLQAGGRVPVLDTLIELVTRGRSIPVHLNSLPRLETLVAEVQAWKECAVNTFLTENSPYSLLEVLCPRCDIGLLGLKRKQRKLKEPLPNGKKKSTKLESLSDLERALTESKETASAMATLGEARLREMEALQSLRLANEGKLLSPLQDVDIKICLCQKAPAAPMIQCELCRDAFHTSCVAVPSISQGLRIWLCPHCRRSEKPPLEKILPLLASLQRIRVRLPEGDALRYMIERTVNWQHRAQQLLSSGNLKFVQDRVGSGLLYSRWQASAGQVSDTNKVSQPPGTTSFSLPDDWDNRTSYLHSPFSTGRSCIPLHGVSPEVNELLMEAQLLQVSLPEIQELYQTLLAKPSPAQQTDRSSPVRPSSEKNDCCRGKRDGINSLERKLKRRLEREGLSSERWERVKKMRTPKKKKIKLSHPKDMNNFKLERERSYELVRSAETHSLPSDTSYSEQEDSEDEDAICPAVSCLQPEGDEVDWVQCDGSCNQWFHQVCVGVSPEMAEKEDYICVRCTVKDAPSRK
# Assay: Primary screen for KDM5B Histone Demethylases FDH-coupled qHTS; note: nearly all actives have a fitted effect of over 70% in size; for activity change, negative = inhibition: 0% is about no effect
# Conditions: FDH-coupled NADH fluorescence (FDH is formaldehyde dehydrogenase); activity change, negative = inhibition: at 57.7 µM (top of the series) unless noted
# In short: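 qHTS format, multiple compound concentrations. Buffer 50 mM HEPES pH 7.5/0.01% Tween-20; 200 nM KDM5BΔAP final; 10 min compound preincubation; substrate-mix levels 12.5 µM peptide, 25 µM α-KG, 0.25 mM NAD⁺; 30 min RT; ΔRFU.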
# Potency is the fitted concentration of half-maximal effect; tags give direction and shape of the fitted curve.
Structure (SMILES),Potency,"activity change, negative = inhibition"
COc1ccccc1CNC[C@H]1Cn2c(-c3cccc(Cl)c3)cnc2CO1,inactive,–
CCC(C(=O)NCCc1ccc(OC)c(OC)c1OC)n1nc(C)c2sc3ccccc3c2c1=O (centres undefined),"inconclusive: 3.98 µM [inhibitor, partial curve, poor fit]",–
O=C(O)CNC(=O)c1cc(-c2ccccc2)nc2ccccc12,"inconclusive: 39.8 µM [inhibitor, single point]",–
Nc1c(Cl)ncnc1N/N=C/c1cccc(O)c1,"inconclusive: 25.1 µM [inhibitor, partial curve, poor fit]",–
CCOC(=O)c1[nH]c2ccccc2c1NC(=O)c1ccc(C)c(C)c1,"inconclusive: 25.1 µM [inhibitor, partial curve, poor fit]",–
COCc1cc(C[C@@H]2C[C@H](NC3CCN(C(C)=O)CC3)C2(C)C)no1,inactive,–
CCNCc1ccc(-c2cccc(Cl)c2)o1,inactive,–
CCCCCc1ccc(-c2ccc(C3CCC(CCC)CC3)cc2)nc1 (centres undefined),inactive,–
Cc1cccc(C(=O)NCC(=O)N(C)Cc2ccc(-c3ccc(Cl)cc3)o2)c1,"inconclusive: 39.8 µM [inhibitor, single point]",–
O=C(NC1(c2ccc(Cl)cc2)CCC1)c1cc(Cl)c[nH]1,inactive,–
C=C(C)COc1ccc2c(C)c(CCC(=O)NCc3ccc(S(N)(=O)=O)cc3)c(=O)oc2c1C,"inconclusive: 14.1 µM [inhibitor, partial curve, poor fit]",–
Oc1cccc(/C=C/c2nc(-c3ccc(F)cc3)cs2)c1,"inconclusive: 12.6 µM [inhibitor, partial curve, poor fit]",–
Cc1nc2n(c1C(=O)NCc1cccs1)CCC(Nc1ccccc1)C2 (centres undefined),inactive,–
Cc1ccn2c(Nc3ccccc3)c(-c3c[nH]c4ccccc34)nc2c1,"inconclusive: 28.2 µM [inhibitor, partial curve, poor fit]",–
Cc1oc(-c2nc(C#N)c(NCc3ccccc3Cl)o2)cc1S(=O)(=O)N(C)C,"inconclusive: 35.5 µM [inhibitor, partial curve, poor fit]",–
CC(=O)N1CCC2(CC1)CN(C(=O)c1cccc3[nH]ccc13)Cc1ccccc1O2,"inconclusive: 79.4 µM [inhibitor, partial curve, poor fit]",–
CC(=O)OCC12COC(c3ccc(OC(C)=O)cc3)C(C(C)=CC1C)C2C (centres undefined),inactive,–
COc1cccc(CNC(=O)[C@@H]2C[C@@H](O)CN2C2CCN(C(=O)COc3cccc(C)c3)CC2)c1,inactive,–
COc1ccccc1Nc1nn2c(=O)c3ccc(C(=O)NCCc4ccccc4)cc3nc2s1,"inconclusive: 25.1 µM [inhibitor, single point]",–
CC(=O)NCC(=O)NCc1nnc2ccc(-c3ccc(C)c(C)c3)nn12,"inconclusive: 3.16 µM [inhibitor, full curve, poor fit]",–
COc1ccccc1NC(=O)c1ncoc1-c1ccc(C)o1,"inconclusive: 35.5 µM [inhibitor, single point]",–
CCOc1cc(C)c(C(C)C)cc1S(=O)(=O)n1ccnc1C(C)C,inactive,–

Structure (SMILES),Potency,"activity change, negative = inhibition"
Cc1ccc(C)c(NC(=O)c2cc3cn(C4CC4)cc3s2)c1,"inconclusive: 10 µM [inhibitor, partial curve]",–
CCN(CC)CCCOc1ccccc1-c1ccccc1,"inconclusive: 14.1 µM [inhibitor, partial curve, poor fit]",–
COc1cccc(CN2CCNc3cnc(-c4ccccc4)cc3C2)c1,active: 35.5 µM,–
CC(=O)Nc1cccc(-c2nnc(SCC(=O)c3cc([N+](=O)[O-])ccc3Cl)o2)c1,"inconclusive: 1.58 µM [inhibitor, full curve, poor fit]",–
CCN(CC)C(=O)Cn1ncc2c([nH]c3ccccc32)c1=O,"inconclusive: 28.2 µM [inhibitor, partial curve, poor fit]",–
CCOC(=O)c1cnc2ccc(C(=O)OC)cc2c1Nc1ccc(OCc2ccccc2Cl)cc1,–,inconclusive: -36.8% [inhibitor]
COc1cccc(N2CCN(C(=O)c3ccc4nc(N5CCC(C)CC5)sc4c3)CC2)c1,"inconclusive: 25.1 µM [inhibitor, single point]",–
O=S(=O)(Nc1ccccc1-c1n[nH]c(C2CC2)n1)c1ccc(F)cc1Cl,"inconclusive: 20 µM [inhibitor, single point]",–
CC(C)Oc1ccc(CNC(=O)c2cnc3sc(N4CCCC4)nn3c2=O)cc1,"inconclusive: 0.891 µM [inhibitor, full curve, poor fit]",–
CNC(=O)C1CCCCN1C(=O)Cc1nc(-c2cccs2)oc1C (centres undefined),"inconclusive: 28.2 µM [inhibitor, partial curve, poor fit]",–
O=C(COC(=O)c1cc(Cl)ccc1O)Nc1ccccc1C(=O)NC1CC1,"inconclusive: 28.2 µM [inhibitor, partial curve, poor fit]",–
O=C(Nc1ccc(Cl)cc1)c1nc2c(o1)CCN(CC1CC1)CC2,inactive,–
CC(=O)N1CC2(Cc3ccccc31)CN([S+](=O)([O-])c1cccc(C(F)(F)F)c1)C2,inactive,–
COC(=O)c1ccc(C2C(c3ccccc3)=C(O)C(=O)N2c2ccc(Cl)cc2)cc1 (centres undefined),"inconclusive: 28.2 µM [inhibitor, partial curve, poor fit]",–
C1CC(C2CCN(C3CCOCC3)CC2)CN1 (centres undefined),"inconclusive: 12.6 µM [inhibitor, partial curve]",–
Cc1ccccc1NC(=O)CSc1ccc(-c2ccccn2)nn1,"inconclusive: 35.5 µM [inhibitor, single point]",–
Cc1ccc(NC(=O)Cn2nc3ccc(S(=O)(=O)C(C)(C)C)nn3c2=O)cc1,inactive,–
COc1ccc(-c2noc(Nc3ccc(OC)cc3OC)n2)cc1,inactive,–
CCN1CCN(CCCNC(=O)Cn2nc(C)n3c(cc4c(OC)cccc43)c2=O)CC1,"inconclusive: 35.5 µM [inhibitor, partial curve, poor fit]",–
COc1ccccc1-c1nn(CCC(=O)Nc2ccc(C)cc2)c2nc(C)cc(C)c12,"inconclusive: 25.1 µM [inhibitor, partial curve, poor fit] and inconclusive: 39.8 µM [inhibitor, single point]",–
Cc1cc(Cl)c(OCCOCCN2CCNCC2)c(Cl)c1,"inconclusive: 39.8 µM [inhibitor, single point]",–
N#CC1=C(N)OC2=C(C(=O)CCC2)C1c1ccc(-c2ccc(Br)cc2)o1 (centres undefined),"inconclusive: 22.4 µM [inhibitor, partial curve, poor fit]",–

Structure (SMILES),Potency,"activity change, negative = inhibition"
COc1ccc(-c2cc(N3CCCN(C(=O)c4ccc(Br)cc4)CC3)n[nH]2)cc1,"inconclusive: 22.4 µM [inhibitor, partial curve, poor fit]",–
O=C(NCc1ccc(CN2CCCC2)cc1)c1cc(S(=O)(=O)N2CCCC2)ccc1Cl,inactive,–
CCCn1c2ccccc2c2cnn(CC(=O)N3CCCC(C(=O)OCC)C3)c(=O)c21 (centres undefined),"inconclusive: 35.5 µM [inhibitor, partial curve, poor fit]",–
C[S+](=O)([O-])N1Cc2ccccc2CC2(CCCN2CC2CCCC2)C1 (centres undefined),"inconclusive: 56.2 µM [inhibitor, partial curve, poor fit]",–
N/C(=N\NC(=O)c1ccc(Cl)cc1)c1cnccn1,"inconclusive: 15.8 µM [inhibitor, partial curve, poor fit]",–
COc1ccc2cnn(CC(=O)Nc3ccc(Cl)cc3)c(=O)c2c1OC,"inconclusive: 28.2 µM [inhibitor, single point]",–
O=C1Nc2ccccc2O[C@H]2C[C@@H]1N(Cc1ccnc3ccccc13)C2,"inconclusive: 28.2 µM [inhibitor, partial curve]",–
COc1cccc(CN2CC[C@H]3C(=O)NCCCCCCN(Cc4ccncc4)[C@@H]3C2)c1,"inconclusive: 25.1 µM [inhibitor, partial curve, poor fit]",–
O=C(Cc1cccc(Cl)c1)N1CCCC(n2cc(-c3nc(-c4ccccc4)no3)nn2)C1 (centres undefined),"inconclusive: 39.8 µM [inhibitor, single point]",–
CCCSCCCNC(=O)Cn1c(-c2cccs2)cc2ccccc21,"inconclusive: 35.5 µM [inhibitor, partial curve, poor fit]",–
Cc1cc(O)c(CN2CCN(c3ccccc3)CC2)c2oc(=O)cc(C)c12,"inconclusive: 12.6 µM [inhibitor, partial curve, poor fit]",–
Nc1ccccc1C(=O)NCC(F)(F)F,"inconclusive: 28.2 µM [inhibitor, partial curve, poor fit]",–
CCCN1C(C(=O)c2ccccc2)=C(OC(=O)COc2ccc(C)cc2)c2ccccc2S1(=O)=O,"inconclusive: 15.8 µM [inhibitor, partial curve, poor fit]",–
Cn1cc(C(=O)N2CCn3nc(C(O)CO)cc3C2)c(=O)[nH]c1=O (centres undefined),inactive,–
Fc1ccc(-c2nc(-c3ccccn3)no2)cc1,inactive,–
CN(Cc1ccccc1)C(=O)c1cccc(-c2cnc3ccccc3c2)c1,inactive,–
Cc1cc(NS(=O)(=O)c2ccc(NC(=O)COc3cc(C)c(Br)cc3C(C)C)cc2)no1,"inconclusive: 25.1 µM [inhibitor, partial curve, poor fit]",–
COc1ccc(-c2cc(C(F)(F)F)nc(SCC(=O)NC(C)c3ccccc3)n2)cc1 (centres undefined),"inconclusive: 25.1 µM [inhibitor, partial curve, poor fit]",–
Cc1cc(C(=O)COC(=O)c2cc3ccccc3oc2=O)c(C)n1CC1CCCO1 (centres undefined),inactive,–
CC(=O)Nc1ccc(Cl)c(NC(=O)c2nn(-c3ccccc3)c(=O)c3ccccc23)c1,inactive,–

# Source: PubChem BioAssay AID1347165 (National Center for Advancing Translational Sciences (NCATS), 2019)
